Columns and labels:
[1] = test system: patients with urinary symptoms associated with BPH (prostatism); experiment: Boyarsky Symptom Index scores in long-range multicenter open-label study of terazosin in prostatism; assay type: in vivo, human; settings: for Irritative Symptom Score Mean Change: mean baseline 4.3
Protocol: Data from patients who have participated in the study up to two and one-half years are currently available.
. Patients with evidence of prostate cancer were excluded from the study.
The primary measures of efficacy in these studies were changes in the peak urine flow rate and urinary symptom scores on the Boyarsky Symptom Index. Peak flow rates and voided urine volumes were determined in the standing position, approximately twenty-four hours after dosing using a Dantec Urodyn 1000 uroflowmeter. A minimum voided urine volume of 125-150 mL was required for a valid urine flow rate determination. Peak flow rates and voided volumes were recorded electronically for each determination.
Obstructive urinary symptoms associated with BPH include urinary hesitancy, intermittency, terminal dribbling, impairment in the size and force of the urinary stream, and the sensation of incomplete emptying of the bladder. Irritative symptoms include daytime frequency of urination, nocturia, a sensation of urgency, and dysuria.
Prior to initiation of the clinical trials, experts in urology were consulted regarding what, in their estimation, would constitute a clinically meaningful change in symptom scores and peak flow rates. On the recommendation of these experts, a clinically important change in either variable was defined as a 30% improvement over baseline.

prostatism = settings: background, early studies; cited from earlier work

Structure (SMILES): COc1cc2nc(N3CCN(C(=O)C4CCCO4)CC3)nc(N)c2cc1OC (stereo not shown) [terazosin]
- Irritative Symptom Score Mean Change ([1]; 1 mo. treatment, 474 patients): −0.5
- Obstructive Symptom Score Mean Change ([1]; 1 mo. treatment, 474 patients, mean baseline 6.1): −1.5
- Total Symptom Score Mean Change ([1]; 1 mo. treatment, 474 patients, mean baseline 10.5): −2.1
- Irritative Symptom Score Mean Change ([1]; 2 mo. treatment, 450 patients): −0.9
- Obstructive Symptom Score Mean Change ([1]; 2 mo. treatment, 450 patients, mean baseline 6.2): −2.3
- Total Symptom Score Mean Change ([1]; 2 mo. treatment, 450 patients, mean baseline 10.5): −3.2
- Irritative Symptom Score Mean Change ([1]; 3 mo. treatment, 457 patients): −1.1
- Obstructive Symptom Score Mean Change ([1]; 3 mo. treatment, 457 patients, mean baseline 6.1): −3.0
- Total Symptom Score Mean Change ([1]; 3 mo. treatment, 457 patients, mean baseline 10.4): −4.1
- Irritative Symptom Score Mean Change ([1]; 6 mo. treatment, 428 patients): −1.2
- Obstructive Symptom Score Mean Change ([1]; 6 mo. treatment, 428 patients, mean baseline 6.1): −3.3

Structure (SMILES): COc1cc2nc(N3CCN(C(=O)c4ccco4)CC3)nc(N)c2cc1OC [prazosin]
- efficacy in prostatism (prostatism): efficacy comparable to that of phenoxybenzamine
- toxicity / side effects (prostatism): fewer side effects

Reference: patent US20020002179A1, “TERAZOSIN IN THE CHRONIC TREATMENT OF THE URINARY SYMPTOMS ASSOCIATED WITH BENIGN PROSTATIC HYPERPLASIA” (priority 1993, published 2002)
